Results reported in PMC4336329 (PLoS ONE, 2015).
In all, about 310,000 compounds went through this assay and about 2,200 (0.71%) showed an effect of 50% or more. The effect is printed as a negative number. The list shows a part of the results.

What follows are molecules tested against human ether-à-go-go-related gene (hERG) potassium channel (human, UniProt Q12809) (assay: primary screen, population patch clamp on CHO cells stably expressing hERG).
Chain of human ether-à-go-go-related gene (hERG) potassium channel (Q12809 whole entry, looked up): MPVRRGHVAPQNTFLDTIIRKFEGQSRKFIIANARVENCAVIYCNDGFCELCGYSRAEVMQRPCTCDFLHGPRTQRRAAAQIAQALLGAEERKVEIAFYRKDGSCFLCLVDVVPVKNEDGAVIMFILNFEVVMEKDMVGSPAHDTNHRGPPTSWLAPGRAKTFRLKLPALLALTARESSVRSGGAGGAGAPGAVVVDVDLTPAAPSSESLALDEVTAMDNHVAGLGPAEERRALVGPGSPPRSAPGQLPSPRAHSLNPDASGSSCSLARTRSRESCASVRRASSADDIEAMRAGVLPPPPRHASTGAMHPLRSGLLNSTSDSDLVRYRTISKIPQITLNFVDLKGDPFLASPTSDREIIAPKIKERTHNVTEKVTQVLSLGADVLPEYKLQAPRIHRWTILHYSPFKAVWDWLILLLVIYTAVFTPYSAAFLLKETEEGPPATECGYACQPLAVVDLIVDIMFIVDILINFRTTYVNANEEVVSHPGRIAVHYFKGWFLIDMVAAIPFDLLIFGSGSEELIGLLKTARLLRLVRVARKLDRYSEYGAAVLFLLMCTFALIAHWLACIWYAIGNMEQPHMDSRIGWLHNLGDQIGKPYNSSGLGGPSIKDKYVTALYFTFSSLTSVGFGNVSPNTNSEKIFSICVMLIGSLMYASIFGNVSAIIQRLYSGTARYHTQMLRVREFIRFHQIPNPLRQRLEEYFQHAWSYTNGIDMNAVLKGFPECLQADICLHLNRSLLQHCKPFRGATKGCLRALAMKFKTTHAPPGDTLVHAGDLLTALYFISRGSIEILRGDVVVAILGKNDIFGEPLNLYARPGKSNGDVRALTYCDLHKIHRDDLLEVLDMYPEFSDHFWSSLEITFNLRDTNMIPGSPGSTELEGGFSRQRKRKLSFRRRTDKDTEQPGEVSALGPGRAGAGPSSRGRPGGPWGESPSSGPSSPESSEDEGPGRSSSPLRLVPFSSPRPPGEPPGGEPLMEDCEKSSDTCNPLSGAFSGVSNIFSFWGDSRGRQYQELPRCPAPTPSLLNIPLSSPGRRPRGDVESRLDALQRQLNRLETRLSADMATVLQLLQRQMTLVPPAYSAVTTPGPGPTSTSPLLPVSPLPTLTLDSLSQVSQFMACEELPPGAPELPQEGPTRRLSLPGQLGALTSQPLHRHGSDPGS

| SMILES | hERG current change (%, negative = inhibition) at 1uM |
| --- | --- |
| Cc1cccn(Cc2c(Cl)cccc2Cl)c1=O | -5.06% |
| COC(=O)C1=C(C)NC(C)=C(C(=O)OC)C1c1ccc(N(C)C)cc1 | 2.4% |
| Cc1ccc(C2CC2C(=O)NN)cc1 (centres unmarked) | 0.591% |
| COCCn1nnnc1C(CC(C)C)N1CCN(c2ccccc2)CC1 (centres unmarked) | 10.7% |
| CC(NC(=O)Cc1ccccc1[N+](=O)[O-])c1ccccc1 (centres unmarked) | 8.34% |
| COc1cc(S(=O)(=O)N2CCN=C2c2ccccc2)ccc1F | -2.63% |
| COc1ccc(-c2nc3c(n2O)CCCC3=O)cc1OC | 13.8% |
| Cc1cc(C)cc(NC(=O)c2nccnc2C(=O)O)c1 | 4.8% |
| Cc1ccc(S(=O)(=O)C2(C(=O)NC3CCCCC3C)CC2)cc1 (centres unmarked) | 6.18% |
| COc1cccc(C(=O)N(Cc2ccco2)c2c(N)n(Cc3ccccc3)c(=O)[nH]c2=O)c1 | 12.9% |
| COCCC(=O)N1CCCC(C(=O)c2ccc(C(F)(F)F)cc2)C1 (centres unmarked) | 12.8% |
| CN(C(=O)COC(=O)CCc1c[nH]c2ccccc12)c1ccccc1 | 14.9% |
| COc1ccccc1C1/C(=C(\O)c2ccc3c(c2)OCCO3)C(=O)C(=O)N1CCCn1ccnc1 (centres unmarked) | 14% |
| Cc1ccc(NS(=O)(=O)c2ccccc2F)cc1S(=O)(=O)N1CCCCC1 | 6.79% |
| Cc1cc(Nc2cccc(Cl)c2)nc(NCc2ccccc2)n1 | 21.2% |
| Cc1ccc(C2=NN(C(=O)CSc3nnnn3C)C(c3ccco3)C2)cc1 (centres unmarked) | 12.1% |
| Oc1ccc2nc(Cc3ccccc3)[nH]c2c1 | 13% |
| O=S(=O)(c1cnc(Cl)c(Br)c1)N1CCCCCC1 | 1.04% |
| COC(=O)C1N[C@@H]([C@@H](NC(=O)COc2ccccc2)C(=O)NCc2ccc(OC)cc2)SC1(C)C (some centres unmarked) | 15.5% |
| COc1ccc(S(=O)(=O)N2CCN(C3Cc4ccccc4C3)CC2)cc1 | 11% |
| CCC(=O)N1c2ccccc2[C@@H](N(C(C)=O)c2ccccc2)C[C@H]1C | 5.94% |
| O=c1cc(-c2ccccc2)[nH]c2[nH]n(-c3ccccc3)c(=O)c12 | -11.6% |
| Cc1cccc(C(=O)OCC(=O)c2ccc3c(c2)OCO3)c1O | 11.8% |

| SMILES | hERG current change (%, negative = inhibition) at 1uM |
| --- | --- |
| CC(c1nc2ccccc2c(=O)[nH]1)N1CCOCC1 (centres unmarked) | 6.16% |
| Cc1ccc(C(=O)Nc2ccccc2C(=O)NCc2ccco2)cc1S(=O)(=O)N1CCCCC1 | 9.27% |
| O=C(CCN1CCCCO1)N1CCCC(N2CCN(c3ccc(F)cc3)CC2)C1 (centres unmarked) | 21.9% |
| NC(N)=NC1=NC(=O)C(Cc2ccccc2)S1 (centres unmarked) | 6.52% |
| CCc1nc2oc3cc(OC)ccc3c(=O)c2c(=O)n1-c1ccccc1 | 6.71% |
| O=C(Nc1ccc(S(=O)(=O)N2CCOCC2)cc1)c1cc(-c2ccccc2O)n[nH]1 | 8.79% |
| CCn1nc(C(=O)Nc2cc(Cl)ccc2-n2cncn2)c2ccccc2c1=O | 2.9% |
| CC1(C)Cc2nc(N3CCOCC3)c(C#N)cc2CO1 | 12% |
| CCOc1ccc(Oc2ccccc2NS(=O)(=O)c2ccc(CCC(=O)O)cc2)cc1 | 14.9% |
| O=C1C(=O)N(CCN2CCOCC2)C(c2ccncc2)/C1=C(/O)c1ccc2c(c1)OCO2 (centres unmarked) | 9.98% |
| O=C(COc1ccccc1)Nc1c(C(=O)N2CCC(N3CCCCC3)CC2)oc2ccccc12 | -9.1% |
| CN(CCC1CCCCO1)C(=O)CCc1nnc(CCCCc2ccccc2)o1 (centres unmarked) | 4.71% |
| O=C(Nc1cccc(O)c1)c1ccc(Br)cc1 | -0.53% |
| O=C(Cn1ccn(-c2ccc(F)c(F)c2)c(=O)c1=O)NCCc1ccccc1 | 9.08% |
| O=C(CSc1nc2c(sc3ccccc32)c(=O)n1Cc1ccco1)NCC1CCCO1 (centres unmarked) | -0.521% |
| CCN(CC)c1ccc(/C=c2\sc3nnc(-c4ccccc4Cl)n3c2=O)cc1 | 4.69% |
| Clc1cccc(NCc2cn3cccnc3n2)c1 | 11.8% |
| CCOC(=O)c1cnc(SCC(=O)OCC(=O)N(CC)C2CCS(=O)(=O)C2)nc1N (centres unmarked) | 2.16% |
| Nc1ccc(-c2nc3ccccc3s2)cn1 | 14.7% |
| O=C(c1cccc(C(F)(F)F)c1)C1CCCN(Cc2cccn2-c2ncccn2)C1 (centres unmarked) | -105% |
| Cc1cccc(NC(=O)CCN2CCCC(C)C2)c1.Cl (centres unmarked) | 10.4% |
| NC1=C([N+](=O)[O-])C(c2ccccc2)C2=C(CCCC2=O)O1 (centres unmarked) | 24.8% |
| COc1nc(NC(C)C)nc(N(C#N)CN2C(=O)c3ccccc3S2(=O)=O)n1 | 0.394% |

| SMILES | hERG current change (%, negative = inhibition) at 1uM |
| --- | --- |
| O=C1CC(c2ccc(S(=O)(=O)NCc3ccncc3)cc2)CN1 (centres unmarked) | -3.29% |
| CCN(CC)CCn1c(=S)[nH]c2cc(C(=O)N3CC=C(c4ccccc4)CC3)ccc2c1=O | 4.14% |
| CCn1c(SC(C)C(=O)O)nnc1-c1cccnc1 (centres unmarked) | -0.855% |
| c1ccc2nc3ccccc3nc2c1 | 11% |
| CC1CN(C(=O)CCC(=O)NCc2ccccc2)c2ccccc2O1 (centres unmarked) | 12.8% |
| CC(=O)Nc1cc(-c2ccccc2)ccc1O | 9.3% |
| CCCN1C(=O)/C(=C\C=C2/Sc3ccccc3N2CCO)SC1=S | 14.5% |
| CCOC(=O)C(C(=O)OCC)C(Nc1ccccc1)c1ccccc1 (centres unmarked) | 10.1% |
| Cn1c(CC(=O)Nc2ccccc2F)nnc1SCC(=O)NC1CCCC1 | 10.5% |
| COc1cc(C(=O)NCCC(=O)N2CCC3(CC2)NCCc2[nH]cnc23)cc(OC)c1OC | 8.82% |
| CCOc1cccnc1Sc1ccccc1 | 7.37% |
| COc1cc(CN2CCCC(N3CCN(c4ccccc4C)CC3)C2)ccc1O (centres unmarked) | -7.03% |
| O=C(Cc1nc(=O)c2ccccc2s1)Nc1ccccc1 | 15.8% |
| CC(=O)N(Cc1cccs1)Cc1cc2cc(C)c(C)cc2nc1Cl | -4.09% |
| CCOC(=O)N1CCC(NC(=O)c2cccc3c2C(=O)N(c2ccc(OC)cc2)C3)CC1 | -2.11% |
| CC(C)(C)c1ccc(C(=O)O/N=C(\N)c2ccccc2)cc1 | 15.2% |
| Cc1cc(-c2ccccc2)nc(-c2ccccc2)c1C | 8.77% |
| CCOCCOc1cccc(C(=O)NC(c2ccccc2)c2ccccc2)c1 | 15.6% |
| Cc1[nH]c2ccccc2c1C(=O)C(=O)NCc1ccco1 | 21.5% |
| CCCCN1C(C(=O)Nc2cc(C)on2)=C(O)c2ccccc2S1(=O)=O | 12.7% |
| CCOC(=O)c1c(C)n(CC(O)CN2CCOCC2)c2cc(Br)c(OC)cc12.Cl (centres unmarked) | 3.63% |
| O=[N+]([O-])c1ccc(N2CCN(S(=O)(=O)c3ccc(Cl)cc3)CC2)cc1NCc1cccnc1 | 8.26% |
| O=C(NC1CCN(C(=O)NCc2ccccc2)CC1)c1ccco1 | 8.74% |

| SMILES | hERG current change (%, negative = inhibition) at 1uM |
| --- | --- |
| Cc1ccc2cc(C)c(Sc3nnnn3-c3ccccc3)nc2c1 | -5.69% |
| Cc1cccc(NCc2nc(SCC(N)=O)n[nH]2)c1 | -0.282% |
| CCC(=O)c1ccccc1OCCN1CCN(Cc2ccccc2)CC1.O=C(O)C(=O)O | -21.9% |
| Cc1ccc(-c2noc(CCC(=O)NCC3CCCO3)n2)cc1 (centres unmarked) | 7.29% |
| O=C1[C@H]2[C@@H](/C=C/c3ccccc3)N3C(=O)CN(CC4CC4)C(=O)[C@@]3(Cc3ccccc3)[C@H]2C(=O)N1c1ccccc1 | 4.59% |
| COCCNC(=O)/C(C#N)=C/c1ccc(C)o1 | -3.17% |
| Cl.Fc1ccc2c(c1)nnn2C1CCN(Cc2nnnn2C2CCCCC2)CC1 | 2.29% |
| COc1ccc(OC)c(NC(=O)N2CCCc3ccccc32)c1 | 4.47% |
| CC(Sc1nccn1C)C(=O)Nc1ccccc1 (centres unmarked) | -2.42% |
| CC(=O)Nc1ccc(NC(=O)C(C)OC(=O)CCc2nc3ccccc3s2)cc1 (centres unmarked) | 10.6% |
| O=C(NC1CCS(=O)(=O)C1)c1ccc(S(=O)(=O)N2CCCC2)cc1 (centres unmarked) | 17.6% |
| Cc1cccc(NC(=O)CSc2nc3ccc(N4C(=O)c5ccccc5C4=O)cc3s2)c1C | 15.1% |
| CC1(C)C2CCC1(CS(=O)(=O)N1CCOCC1)C(=O)C2 (centres unmarked) | -2.61% |
| COc1cc(SC)ccc1C(=O)N1CCN(c2ccccc2)CC1 | 3.69% |
| Cc1ccc(C)c(Cn2cnc3c(cnn3C(C)(C)C)c2=O)c1 | 15.2% |
| CCOC(=O)C1=C(N)Oc2cc(C)[nH]c(=O)c2C1c1ccncc1 (centres unmarked) | 2.87% |
| CN(C)CCN(C(=O)c1ccc2c(c1)OCCO2)c1nc2ccc(Cl)cc2s1.Cl | 10.8% |
| OCCN1CCN(C(=S)c2ccc(Cl)cc2)CC1 | 9.29% |
| CCOc1ccc2nc(SCc3cccc(C)c3)nc(C)c2c1 | 6.03% |
| CCCC1C2C(=O)N(c3ccc(OC)cc3)C(=O)C2ON1c1ccccc1 (centres unmarked) | 12.4% |
